In PubChem BioAssay AID1963576 (National Center for Advancing Translational Sciences (NCATS), 2024):
Among all 46,000 compounds or so, about 60 (0.1%) were called active. Roughly 3% stayed inconclusive and do not appear here. Calls follow the shape of the dose curve; as a rule, active = well fitted inhibition curve with a large enough effect; inconclusive = small, poorly fitted or top-dose-only effect; inactive = no such curve, though single readings can be large or run the other way. This is one part of the list.

Assay: Primary qHTS assay for Inhibitors of ovarian cancer metastasis using an organotypic tumor microenvironment (TME) model. Also: nearly all actives have a fitted effect of over 65% in size.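 As to activity change, negative = inhibition: plate controls were DMSO wells for no effect and tomatine positive control wells for full effect.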
Conditions: SKOV3ip1-GFP adhesion/invasion on 3D omental model, fluorescence; series mostly up to 45.8 µM; activity change, negative = inhibition: at the top concentration
Method in brief: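 qHTS, 4-pt dose (0.36-46 umol/L); SKOV3ip1-GFP, 1,200 cells/well, no FBS; primary omental fibroblast/mesothelial co-culture 48 h pre-grown; 2 h RT + 16 h 37 C; PBS wash, 4% PFA; GFP count 488/509 nm.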

outcome, inactive:
CCc1ccc(Nc2nc3ccccc3nc2NS(=O)(=O)c2ccccc2)cc1
Cc1nc2cccnc2n1C1CCN(C(=O)Nc2ccc(Cl)cc2)CC1
Cc1cc2[nH]c(=O)c(=O)[nH]c2cc1S(=O)(=O)N1CCN(c2cccc(Cl)c2)CC1
COC(=O)Cn1c(SCCOc2ccccc2OC)nc2ccccc21
CNC(=O)CN1C(=O)COc2ccc(S(=O)(=O)N3CCC(C)CC3)cc21
Cc1ccc(Nc2ncnc3sc4c(c23)CCC(C)C4)cc1C (stereo not given)
Cc1ccc(CNC(=O)C(=O)NCC(c2ccc3c(c2)OCO3)N2CCOCC2)cc1 (stereo not given)
COc1cc2nc(SCc3ccc(C)cc3)n3nc(CCn4nc(C)cc4C)nc3c2cc1OC
Cc1cc(C)cc(NC(=O)C(Cc2ccccc2)NS(=O)(=O)c2ccc3c(c2)CCC(=O)N3)c1 (stereo not given)
O=C(c1ccc2c(c1)N(Cc1ccc(F)cc1)C(=O)c1ccccc1S2(=O)=O)N1CCCCC1
CCc1c(C)c2cc3c(c(C)c2oc1=O)OCN(CCc1ccccc1F)C3
Cc1cccc(C)c1NC(=O)Cn1nnc(S(=O)(=O)c2ccccc2)c1N
Cc1c(C(=O)NCCN(C)C)oc2c1-c1nn(Cc3cccc(Cl)c3)cc1CC2
Cc1cc(NC(=O)Cc2ccccc2)cc(-c2nc3ccccc3o2)c1O
COc1ccc(-c2nc3sc(CCNC(=O)c4ccc(Br)o4)c(C)n3n2)cc1
O=C(CSc1nc(=O)n(Cc2ccccn2)c2c1CCC2)Nc1ccccc1
CCCNC(=O)c1ccc2c(c1)nc1n2CCCCC1
COc1ccc(C(Nc2ccccn2)c2ccc3ccc(C)nc3c2O)cc1C (stereo not given)
CCn1cc2nc(SCc3ccccc3Cl)n(Cc3ccc(OC)cc3)c(=O)c2n1
COc1cc2c(c(OC)c1)C(c1cccc(F)c1F)CC(=O)N2 (stereo not given)

Activity change, negative = inhibition, inactive:
COc1ccc(NC(=O)C2CCN(S(=O)(=O)c3c(C)noc3/C=C/c3cccs3)CC2)cc1Cl 0.492%
CCOc1ccc(-c2c(C)nn3c(C)c(C(=O)NCCc4ccc(C)cc4)cnc23)cc1OCC -19.3%
CCc1c(C)sc2c1CCN(Cc1ccccc1F)C2c1ccccc1 (stereo not given) -6.92%
COC(=O)Cc1c(C)c2ccc3c(c2oc1=O)CN(Cc1ccccc1Cl)CO3 11.2%
Cc1ccc(-n2cnnn2)cc1S(N)(=O)=O -1.58%
CCc1cc2c(cc3c(=O)n(CC(=O)NCCc4ccc(OC)cc4OC)nc(CC)n32)s1 -0.905%
COc1ccc2[nH]cc(CCN=C(NC(=O)c3ccccc3OC)Nc3nc(C)cc(C)n3)c2c1 -3.35%
COCCNC(=O)c1ccccc1NC(=O)c1nsc2ccccc12 -10.9%
CCSc1ncc(Cl)c(C(=O)Nc2cccc(Cl)c2)n1 -1.57%
Cc1ccccc1Nc1c(-c2ccc(N3CCOCC3)cc2)nc2ccc(Br)cn12 -14.6%
COc1cccc(Cn2cc(C(=O)c3ccc(Cl)cc3)c(=O)c3ccccc32)c1 -0.446%
Cc1ccc(NC(=O)c2ccc(NC(=O)CCS(=O)(=O)c3cccs3)cc2)cc1F -23%
COc1ccccc1N1CCN(C(=O)C2CCCN(S(=O)(=O)c3ccc4c(c3)CCCN4C(C)=O)C2)CC1 (stereo not given) 9.41%
COc1cc(NC(=O)CSc2nc3nc(C)c(Cc4ccccc4Cl)c(C)n3n2)cc(OC)c1 -7.29%
Cc1ccc2c(=O)cc(C(=O)Nc3c(C)n(C)n(-c4ccccc4)c3=O)oc2c1 -12.6%
CCOC(=O)C1(C)C=C(Nc2cccc(C(=O)O)c2)C(=O)N1c1ccccc1 (stereo not given) 9.62%
COC(=O)C(CCSC)Nc1ncnc2onc(-c3ccc(F)cc3)c12 (stereo not given) 1.01%
CC(C)Cn1c(-c2cccc(Br)c2)nc2ccccc21 0.498%
COc1cc(Cl)c(C)cc1NC(=O)c1cnc(N2CCCCC2)c2ccccc12 4.03%
CCCOc1ccc(CNC(=O)C(NS(=O)(=O)c2cccs2)C(C)C)cc1 (stereo not given) 3.81%
OCc1cnc(SCc2ccccc2F)n1Cc1ccc(F)cc1 -4.54%
CCOc1ccccc1NC(=O)C(=O)Nc1ccc2nc3n(c(=O)c2c1)CCCCC3 -8.84%
Cc1ccccc1OCc1ccc(-c2nc(C#N)c(N3CCN(c4cccc(Cl)c4)CC3)o2)o1 1.61%
Cc1cc(C)c(NC(=O)C2CCCN(S(=O)(=O)c3c(C)noc3C)C2)c(C)c1 (stereo not given) 2.46%
Cc1cc(C)cc(NC(=O)Cc2noc3ccccc23)c1 -9.16%
O=C(c1ccccc1)N1c2nc(-c3ccco3)nn2C2(CCCCC2)[C@@H]2CCCC[C@@H]21 0.703%
CN(C(Cc1ccc(OS(=O)(=O)c2cccc3cnccc23)cc1)C(=O)N1CCN(c2ccccc2)CC1)S(=O)(=O)c1cccc2cnccc12 (stereo not given) -12.2%
CCC(=O)N1CCc2cc(S(=O)(=O)NCCC(=O)Nc3ccc(N(CC)CC)cc3C)ccc21 -13.4%
CCN(CC)S(=O)(=O)c1ccc(C(=O)NCCSc2c(-c3ccccc3)[nH]c3ccccc23)cc1 -2.76%
CCCCCCOc1ccc(C2C(=O)N(C3CCCCC3)CC(=O)N2C2CCCCC2)cc1 (stereo not given) -9.63%
COc1cc(NC(=O)CSc2c3c(nc4ccccc24)CCC3)cc(OC)c1OC -9.94%
NC(=O)c1cc(S(=O)(=O)N2CCN(c3cccc(C(F)(F)F)c3)CC2)cs1 -2.48%
Cc1ccc(-c2nn3c(C)nnc3c3ccccc23)cc1S(=O)(=O)NCC(C)O (stereo not given) 1.39%
CCc1ccccc1N(C)C(=O)C1CCCN(c2ncnc3c2nc2n3CCCCC2)C1 (stereo not given) -5.87%
COc1cc(NC(=O)c2cc3cc4ccc(C)cc4nc3o2)cc(OC)c1OC -1.19%
Cc1ccc(-n2ncc(C(=O)NCc3ccco3)c2C2CCN(C(=O)OC(C)(C)C)CC2)cc1C -0.409%
O=C(CSc1nc(-c2cccc(F)c2)[nH]c1-c1ccccc1)Nc1ccc2c(c1)OCO2 6.16%
O=C(CSc1nc2ccccc2nc1Cc1ccc(Cl)cc1)N1CCN(c2ccccc2)CC1 -3.91%
Cc1c(C(=O)Nc2cc(F)ccc2F)sc2nc(-c3ccc(F)cc3)cn12 -1.79%
COc1ccc2c3c1OC1C[C@@H](O)C=C[C@@]31CCN(C)C2 (stereo not given in full) 7.09%
N#Cc1c(-c2ccccc2)cc(-c2ccccc2)nc1SCC(O)CS(=O)(=O)Cc1ccc(Cl)cc1 (stereo not given) -7.13%
Cc1ccccc1-c1noc(-c2ccccc2OCC(=O)Nc2cccc([N+](=O)[O-])c2)n1 -2.55%
O=C1CN(C(=O)c2ccc(S(=O)(=O)N3CCCC3)cc2)C(c2ccccc2)c2cc(F)ccc2N1 (stereo not given) 2.3%
CN(C)c1ccc(Nc2ncnc3c2c(-c2ccccc2)cn3-c2cccc(Cl)c2)cc1 -8.64%
CCOC(=O)c1cc2c(=O)n3ccccc3nc2n(C(C)C)c1=NC(=O)C(C)(C)Oc1ccc(Cl)cc1 -7.84%
CCn1cc(/C=C(\NC(=O)c2cc(OC)c(OC)c(OC)c2)C(=O)NCCCn2ccnc2)c2ccccc21 3.94%
CCN(Cc1nc(-c2ccc(OC)c(OC)c2)no1)S(=O)(=O)c1ccc(OC)cc1 -0.798%
C#Cc1cccc(Nc2ncnc3cc(OCCOC)c(OCCO)cc23)c1 4.52%
COc1ccccc1N1CCN(C(=O)CN2C(=O)COc3ccc(S(=O)(=O)N4CCOCC4)cc32)CC1 -9.75%
CCN(CC)C(=O)c1c(-c2ccccc2)c(-c2ccccc2)nn(CC)c1=O -16.5%
COc1ccc(CCC(=O)NC2CC(=O)N(c3ccc(F)cc3)C2)cc1 (stereo not given) 3.26%
COC(=O)c1ccccc1NS(=O)(=O)c1cc2c(cc1C)N(C)CCO2 -10.8%
Cc1cccc(S(=O)(=O)c2cn(Cc3ccccc3)c3cc(N4CCCCC4)c(F)cc3c2=O)c1 -8.48%
CC[C@H](CC#N)OC(=O)N[C@@H](C)c1cccc(NC(=O)Nc2ccc(-c3cnco3)c(OC)c2)c1 -25.2%
CC(C)(C)OC(=O)N1CCC(c2c(C(=O)NC3CCCCC3)cnn2-c2ccc(F)cc2F)CC1 0.95%
Cc1ccc(S(=O)(=O)C(CNS(=O)(=O)c2cc(F)ccc2F)c2cccs2)cc1 (stereo not given) -4.8%
COc1cc(CNC(=O)c2cnc(SC)nc2-c2ccccc2)cc(OC)c1OC -1.44%
Cn1cnc2c(F)c(Nc3ccc(Br)cc3F)c(C(=O)NOCCO)cc21 8.15%
COc1cccc(CNC(=O)Cn2ncn3nc(-c4cccs4)cc3c2=O)c1 -21.2%
COc1ccc(Cn2ccc3nc(C)c(C(=O)Nc4cccc(SC)c4)cc3c2=O)cc1 -3.02%
Oc1c(C(Nc2ccccn2)c2ccccc2F)ccc2cccnc12 (stereo not given) 0.761%
Cc1ccc(NC(=O)C2CCN(S(=O)(=O)c3cccc4nsnc34)CC2)cc1F -12.1%
Cc1noc(C)c1S(=O)(=O)N(CC(=O)Nc1ccc(F)cc1F)c1ccc(C(C)C)cc1 -8.7%
CCN1CCN(c2oc(-c3ccc(COc4ccccc4C)o3)nc2C#N)CC1 -27.1%
O=C(O)c1ccccc1C(=O)Nc1ccc(Br)c2cccnc12 -5.58%
CC(=O)c1ccc(NS(=O)(=O)c2ccc3c(c2)NC(=O)CCS3)cc1 3.35%
COc1ccc(NC(=O)C(=O)NCCc2csc3nc(-c4ccccc4F)nn23)cc1OC 4.61%
COc1ccc(-c2c(C)c3ccc(O)c(CN4CCC(C)CC4)c3oc2=O)cc1OC 2.42%
CC(=O)Nc1ccccc1-c1nc2ccccc2n(C(C)C(=O)Nc2ccccc2C(F)(F)F)c1=O (stereo not given) -0.319%
CCCN(CCC)CCCNC(=O)c1cc2c(=O)n(C)c3ccccc3c2s1 -20.2%
COc1cccc(CNC(=O)c2ccc(-c3nc(CSc4ccccc4)c(C)o3)cc2)c1 -1.36%
Cc1ccc(CNC(=O)c2cc(=O)c3cc(C)ccc3o2)cc1 1.91%
COc1cc(OC)c(OC)cc1/C=C/c1nc2cc3ccccc3cc2c(=O)n1-c1ccccc1Br -21.1%
Cc1cccc(N2CCN(C3=C(c4ccccc4)C(=O)c4ccccc43)CC2)c1C -23.1%
CN1CCN(c2ncnc3c2cnn3-c2cccc(Cl)c2)CC1 3.61%
